Reference: ChEMBL document CHEMBL4888484, “Replenishing the malaria drug discovery pipeline: Screening and hit evaluation of the MMV Hit Generation Library 1 (HGL1) against asexual blood stage Plasmodium falciparum ,using a nano luciferase reporter read-out” (2022)
“And” between values parts separate entries of the source, which are not always exact repeats. Equal values may be shown once. In all, about 150,000 compounds went through this assay and about 540 (0.36%) showed an effect of 50% or more. The list shows a part of the results.

System: Plasmodium falciparum
Assay: Primary screen in NF54 nanoGlo assay, in single point, at 2uM, 72h; a lower Z score goes with more inhibition
Assay type: functional, Erythrocyte
Details: timepoint 72 hour

COc1ccc(NC(=O)Cn2nc(N3CCC(C)CC3)c3ccccc3c2=O)cc1Cl
% Inhibition: -7%
Z score: 1.01

CC(C)[C@@H](C(=O)N(C)Cc1cccs1)S(=O)(=O)C1CCCCC1
% Inhibition: -7%
Z score: 1.06

Cc1cc(NC(=O)Cn2ncn(C)c2=O)nn1CC(F)(F)F
% Inhibition: -5%
Z score: 1.05

CN(C)c1ccc(NC(=O)c2cccc(C(=O)Nc3ccc(N(C)C)cc3)c2)cc1
% Inhibition: -26%
Z score: 3.06

CC(=O)c1c(N)nc(C)nc1C(Cl)(Cl)Cl
% Inhibition: -27%
Z score: 3.17

Cc1ncoc1C(=O)N1CC(F)(F)C[C@H]1c1nnc(C2CC2)o1
% Inhibition: 2%
Z score: -0.42

CC1(C)NC(=O)N(CC(=O)N2CCCNCC2)C1=O
% Inhibition: -17%
Z score: 2.57

O=S(=O)(c1cc(Cl)ccc1Cl)N1C[C@H](COCC2CC2)C2(CCOCC2)C1
% Inhibition: -10%
Z score: 1.34

CN1CCN(CC[C@H]2CCCCN2C(=O)CCc2ccncc2)CC1
% Inhibition: 2%
Z score: -0.27

CCN1CCC[C@@H]1CNC(=O)c1cc2c(=O)n(CC(C)C)c3ccccc3n2n1
% Inhibition: 24%
Z score: -2.34

CN1C(=O)c2cc(C(F)(F)F)ccc2O[C@H]2CN(C(=O)NC3CCCCC3)C[C@H]21
% Inhibition: -9%
Z score: 1.32

Cc1cccc(OCC(=O)N(Cc2cccc(Cl)c2)[C@H]2CCS(=O)(=O)C2)c1
% Inhibition: -11%
Z score: 0.94

Cc1cc(NC(=O)[C@H]2CCOC2)nn1C1CCCCC1
% Inhibition: -16%
Z score: 2.04

Oc1nc(-c2cccnc2)nc2c1CCCC2
% Inhibition: 0%
Z score: 0.07

N#CCNC(=O)Cc1ccc(F)cc1Cl
% Inhibition: -1%
Z score: 0.12

CCN1CCCN(Cc2ccc3ccccc3n2)CC1=O
% Inhibition: -4%
Z score: 0.6

COc1ccccc1CN1CCC([C@]2(Cc3ccccc3Cl)NC(=O)N(CC3CC3)C2=O)CC1
% Inhibition: 3%
Z score: -0.35

CC(C)(c1nc(-c2ncc[nH]2)no1)S(=O)(=O)C1CC1
% Inhibition: -8%
Z score: 0.89

Cc1nc2ccccc2n1CCNC1[C@@H]2CCO[C@@H]2C12CCC2 (some centres undefined)
% Inhibition: 16%
Z score: -2.05

Cc1ccccc1-c1noc(CN2CCN(CN3CCOC3=S)CC2)n1
% Inhibition: -10%
Z score: 1.62

NC(=O)c1cccc(CN2CCC3(CC2)C[C@@H]3c2nnc(-c3ccccc3)o2)c1
% Inhibition: -3%
Z score: 0.36

CC(NC(=O)N1CCC(C(N)=O)C1)c1ccc(Cl)s1 (centres undefined)
% Inhibition: -33%
Z score: 3.03

CC(=O)Nc1ccc(CCNCc2cn(C)nc2-c2ccncc2)cc1
% Inhibition: -18%
Z score: 1.84

Cc1ccc(N(C)S(=O)(=O)c2cc(C(=O)N3CCCC3)cs2)cc1
% Inhibition: 1%
Z score: -0.05

C=CCC1(O)C(C)C(c2ccc(N(C)C)cc2)NC(c2ccc(N(C)C)cc2)C1C (centres undefined)
% Inhibition: -21%
Z score: 3.12

CCN(CC)Cc1csc(NC(=O)c2ccn(C)n2)n1
% Inhibition: -22%
Z score: 2.92

Cc1cccc(C)c1NC(=O)N1CCC2(CC1)C(=O)N(CC(=O)N(C)Cc1ccccc1)CN2c1ccccc1
% Inhibition: 4%
Z score: -0.63

CN(C)S(=O)(=O)N1C[C@H]2CC[C@@H](C1)N(Cc1ccc(-n3cccn3)cc1)C2
% Inhibition: -9%
Z score: 1.6

O=C1CCOCCN1Cc1cccc2ccccc12
% Inhibition: -9%
Z score: 1.7

Cc1cccc(NC(=O)C2CCN(S(=O)(=O)c3c(C)nn(-c4ccccc4)c3C)CC2)c1C
% Inhibition: -6%
Z score: 0.88

O=C(N[C@@H]1CN(C2CCCCCC2)C[C@H]1CO)c1ccncc1
% Inhibition: -14%
Z score: 1.99

Cc1nnc([C@H](C)NC(c2ccccc2C)c2ccccc2C)s1
% Inhibition: -5%
Z score: 0.8

Cc1ncsc1C(=O)NS(=O)(=O)c1c(C)nn(C)c1C
% Inhibition: 9%
Z score: -1.17

CC[C@H](C)C(=O)NCCCN1CCCC1
% Inhibition: -38%
Z score: 4.49

Cc1ccc(NC(=O)CC(=O)N(C)Cc2cc(C)no2)c(C)c1
% Inhibition: -3%
Z score: 0.4

Cc1nn(CCCNC(=O)[C@H]2CCOC2)c(C)c1Cl
% Inhibition: -6%
Z score: 1.16

COc1cc(N[C@@H]2COCC[C@@H]2OCc2c(C)noc2C)nc(N)n1
% Inhibition: -6%
Z score: 0.92

O=C(NCCn1cc(Br)cn1)C1CCC1c1ccc(F)cc1 (centres undefined)
% Inhibition: -12%
Z score: 1.88

Cn1c(=O)c2c(ncn2[C@@H](C(=O)Nc2ccc(Cl)c(C(F)(F)F)c2)c2ccccc2)n(C)c1=O
% Inhibition: 1%
Z score: -0.21

Cc1cnn(CCNCC(=O)N2CCOC3CCCCC32)c1 (centres undefined)
% Inhibition: -8%
Z score: 0.9

CCC1CCN(CCNc2ncc(F)c(OC)n2)CC1
% Inhibition: -13%
Z score: 1.32

CC1CN(C(=O)CN2CC(c3ccsc3)CC2C)CCO1 (centres undefined)
% Inhibition: -7%
Z score: 0.96

COc1cc(-c2ncnn2CC(C)(C)O)ccn1
% Inhibition: -12%
Z score: 1.44

C#CCNC(=O)Cc1cc(OCC)c(OCC)cc1Br
% Inhibition: -10%
Z score: 0.87

COCc1nnc(NC(=O)c2ccc3c(c2)C(=O)N(C2CCCCCC2)C3=O)s1
% Inhibition: 5%
Z score: -0.68

Cn1cc(S(=O)(=O)N[C@H]2CCN(c3ccc(Cl)cc3)C2)cn1
% Inhibition: 0%
Z score: -0.06

CC(C)OC1CCC(NC(=O)N(C)CC2(N(C)C)CCC2)CC1 (centres undefined)
% Inhibition: 2%
Z score: -0.28

C#Cc1cccc(NC(=O)N[C@@H](C)C(=O)N2CCS(=O)(=O)CC2)c1
% Inhibition: -2%
Z score: 0.34

CC(C)C[C@H]1C(=O)NCCN1S(=O)(=O)c1cc(Cl)cnc1N
% Inhibition: -11%
Z score: 0.98

Fc1cccc(-c2cc(CN[C@H]3CCCOC3)on2)c1
% Inhibition: -5%
Z score: 1.04

c1ccc(-c2cc(NC3CCCCC3)[nH]n2)cc1
% Inhibition: -35%
Z score: 4.12

CNC(=O)c1cccc(C(=O)[C@H](C#N)c2nc(C)cc(C)n2)c1
% Inhibition: -11%
Z score: 1.51

Cc1cc(C)c(NC(=O)c2cc(-c3cc(C)oc3C)nc3onc(C)c23)c(C)c1
% Inhibition: -14%
Z score: 2.61

Cc1cc(S(=O)(=O)N(C)C)c(Br)cc1Br
% Inhibition: -2%
Z score: 0.32

COc1ccc(CNC2CCOC3(CCOC3)C2)cc1Br (centres undefined)
% Inhibition: 0%
Z score: -0.03

CN1CCN(Cc2cnc(-c3cccs3)s2)C(C)(C)C1=O
% Inhibition: -10%
Z score: 1.88

Cc1nc2ncc(-c3cnn(CCC(C)C)c3)cn2n1
% Inhibition: -4%
Z score: 0.82

CN(CCc1ccncc1)Cc1cscn1
% Inhibition: -2%
Z score: 0.29

CC1=NN(CC(C)C)C(=O)[C@H]1C(=O)Nc1nccs1
% Inhibition: 3%
Z score: -0.41

O=C(Nc1nc2c(s1)CN(Cc1ccccc1)CC2)c1ccc(Oc2ccccc2)cc1
% Inhibition: -2%
Z score: 0.25

CCCn1cc(-c2ccncc2)cc1C(=O)NCCOC
% Inhibition: -8%
Z score: 0.89

Cc1nc(-c2ccnc(N3CCCC3)c2)no1
% Inhibition: 4%
Z score: -0.59

Cn1nc(CN2CCc3ccc(C(F)(F)F)cc3C2)[nH]c1=O
% Inhibition: -5%
Z score: 0.71

CC(=O)N[C@@H](C)c1nc(C2CCOCC2)nn1-c1cnc2ccccc2n1
% Inhibition: -1%
Z score: 0.14

CCn1nc(NC(=O)c2cc(-c3cnn(C)c3)nc3onc(C)c23)cc1C
% Inhibition: 18%
Z score: -2.05

OCC[C@H]1CN(Cc2cccc3cnccc23)CCN1Cc1ccc(F)c(F)c1
% Inhibition: -3%
Z score: 0.5

COc1ccc(-c2cc(-c3ccccc3)c(C#N)c(N)c2C#N)cc1
% Inhibition: 6%
Z score: -0.74

COc1ccc([C@@H]2CCCN2C(=O)Nc2cccc3cccnc23)cc1OC
% Inhibition: -9%
Z score: 1.3

Cc1cc(N(C)C)nc(N2CCN(C(=O)CCC3CCCCC3)CC2)n1
% Inhibition: 0%
Z score: -0.04

Cc1noc([C@H](C)N(C)Cc2cn3ccccc3n2)n1
% Inhibition: -19%
Z score: 2.04

CCn1c2c(c(=O)n3ncc(C(=O)Nc4cc(Cl)ccc4C)c13)CNCC2
% Inhibition: 7%
Z score: -0.96

CCn1cnnc1CN(C)C(=O)C1(c2ccccc2)CCCC1
% Inhibition: -4%
Z score: 0.74

C[C@@H](Cc1ccsc1)N(C)S(=O)(=O)N(C)C
% Inhibition: -3%
Z score: 0.45

CCC[C@H](C)C(=O)Nc1c(C)cccc1C
% Inhibition: -3%
Z score: 0.33

COc1ccc(C(=O)N(Cc2cccs2)c2ccccn2)cc1Cl
% Inhibition: -3%
Z score: 0.41

COC(=O)CNC(=O)N1CCCCCCN(C)C(=O)[C@@H]2CCC[C@@H]21
% Inhibition: -14%
Z score: 1.75

Cc1cc(=O)[nH]c(-n2nc(C3CC3)cc2NC(=O)c2ccc(C(C)(C)C)cc2)n1
% Inhibition: 57%
Z score: -4.8

COc1ccc(C2CN(C(=O)CC(C)C)CC2C(=O)N2CCCC2)c(OC)c1 (centres undefined)
% Inhibition: -10%
Z score: 1.55

Cc1cccc(C(=O)N2CC[S+]([O-])CC(C)C2)n1 (centres undefined)
% Inhibition: -2%
Z score: 0.28

O=C(NCCCN1CCOCC1)c1csc(-c2ccco2)n1
% Inhibition: 0%
Z score: 0.03

Cc1n[nH]c(C2CC2)c1C(=O)N[C@H](c1cccnc1)C(C)C
% Inhibition: -16%
Z score: 1.89

Cc1noc(COCC(=O)Nc2ncc(Cc3ccccc3)s2)n1
% Inhibition: -7%
Z score: 1.03

COCc1nc([C@H](N)c2ccc(OC)cc2)n[nH]1
% Inhibition (2 µM): -7% and -1%

N#Cc1cccc(S(=O)(=O)N2CCc3nc(-c4ccc(Cl)cc4)ncc3C2)c1
% Inhibition: -4%
Z score: 0.6

Cn1ccc(C(=O)N2CCN(Cc3ccccc3)[C@@H]3CS(=O)(=O)C[C@@H]32)n1
% Inhibition: 0%
Z score: 0.01
